According to PubChem BioAssay AID602292 (National Center for Advancing Translational Sciences (NCATS), 2012):
Out of some 1,300 compounds screened, about 380 (29%) were called active. Inconclusive results, whose numbers are uncertain, are shown with a selection of clear calls. Calls follow the shape of the dose curve; as a rule, active = well fitted inhibition curve with a large enough effect; inconclusive = small, poorly fitted or top-dose-only effect; inactive = flat fitted curve, though single readings scatter. No potency is given beside an inconclusive call; the fits are too rough.

What follows are compounds tested against Thyrotropin receptor (Homo sapiens) (UniProt P16473) (assay: qHTS for antagonists of the Thyroid Stimulation Hormone Receptor: Hit Validation in Primary Screen). Conditions: TSHR-expressing cells, cAMP antagonist mode.
Procedure, shortened: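 Competitive HTRF detected cAMP in lysates of TSHR cells, read 30 minutes after antibody and d2 addition at room temperature. Before lysis, cells had 2 hours at 37 deg C with compound plus EC80 TSH, 4nM final.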
Also: nearly all actives have a fitted effect of over 80% in size.
Potency is read from the fitted curve at half-maximal effect; tags tell the direction and shape of the fitted curve.

Chain of UniProt P16473 (P16473 whole entry, looked up): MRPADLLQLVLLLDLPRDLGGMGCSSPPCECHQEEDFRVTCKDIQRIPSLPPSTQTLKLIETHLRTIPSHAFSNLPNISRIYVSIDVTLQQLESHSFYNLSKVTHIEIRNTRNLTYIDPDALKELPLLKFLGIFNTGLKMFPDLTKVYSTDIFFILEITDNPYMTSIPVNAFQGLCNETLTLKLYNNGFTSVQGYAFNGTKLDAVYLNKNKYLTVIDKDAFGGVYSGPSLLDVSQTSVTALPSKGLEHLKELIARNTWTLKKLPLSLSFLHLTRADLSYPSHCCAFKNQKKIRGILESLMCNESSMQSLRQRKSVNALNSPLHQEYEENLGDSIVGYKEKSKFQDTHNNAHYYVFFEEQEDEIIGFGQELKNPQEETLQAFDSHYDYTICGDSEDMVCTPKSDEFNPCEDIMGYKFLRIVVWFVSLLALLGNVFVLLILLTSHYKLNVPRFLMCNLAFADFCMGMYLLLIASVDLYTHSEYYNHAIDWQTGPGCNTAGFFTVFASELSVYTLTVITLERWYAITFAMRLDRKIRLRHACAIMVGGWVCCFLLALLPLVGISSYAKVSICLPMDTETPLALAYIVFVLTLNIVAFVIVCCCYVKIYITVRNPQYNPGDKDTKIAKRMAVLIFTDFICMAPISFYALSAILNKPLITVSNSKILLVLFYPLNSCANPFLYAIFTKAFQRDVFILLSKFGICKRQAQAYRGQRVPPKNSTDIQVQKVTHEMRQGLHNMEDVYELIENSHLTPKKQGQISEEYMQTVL

Compound | Potency
CC1CCN(Cc2c(C(=O)N/N=C/c3cc(Cl)ccc3O)nnn2-c2nonc2N)CC1 | inactive
CC(NC(=O)c1ccc([N+](=O)[O-])o1)C12CC3CC(CC(C3)C1)C2 (stereo unspecified) | inconclusive [inhibitor, partial curve]
CCOc1ccc2nc(SC3CC(=O)N(c4ccccc4)C3=O)sc2c1 (stereo unspecified) | inconclusive [inhibitor, partial curve]
CCOC(=O)N1CCN(C(=O)CCc2ccccc2)CC1 | inactive
CCOC(=O)c1sc(NC(=O)CSc2n[nH]c(-c3ccncc3)n2)c(C#N)c1C | inconclusive [inhibitor, partial curve]
O=C(COc1ccc(-c2ccccc2)cc1)Nc1cccnc1 | active: 37.9 µM
Cc1nn(S(=O)(=O)c2ccccc2)c(C)c1Sc1ccc([N+](=O)[O-])cc1 | inconclusive [inhibitor, partial curve]
CC(=O)c1ccc(N2CCN(C(=S)Nc3ccc(Oc4ccccc4)cc3)CC2)cc1 | inconclusive [inhibitor, partial curve]
CC(C)COc1cccc(-c2cc(C(=O)Nc3ccon3)c3ccccc3n2)c1 | inactive
CC(C)Cn1c(-c2csc3c2CCCC3)n[nH]c1=S | inconclusive [inhibitor, partial curve]
COCCn1nnnc1C(c1cccs1)N1CCN(c2cc(C)ccc2C)CC1 (stereo unspecified) | inconclusive [inhibitor, partial curve, poor fit]
COc1ccc(NS(=O)(=O)c2cc(NC(=O)/C=C/c3cc(OC)ccc3OC)ccc2N2CCCCC2)cc1 | inactive
O=C(Nc1ccc2nc3n(c(=O)c2c1)CCCCC3)C(=O)N1CCN(c2ccccc2F)CC1 | inactive
C/C(=N/NS(=O)(=O)c1ccc(Br)cc1)c1ccc(NC(=O)c2ccc(C)o2)cc1 | inconclusive [inhibitor, partial curve, poor fit]
N#C/C(=C(/O)COC(=O)c1ccc(C#N)cc1)c1nc2ccccc2s1 | inconclusive [inhibitor, partial curve]
CCC(C)(C)C1CCC(NC(=O)N2CCN(c3ccccc3O)CC2)CC1 (stereo unspecified) | inconclusive [inhibitor, partial curve, poor fit]
COC(=O)c1cc(-c2c[nH]c3ccccc23)n[nH]1 | inactive
Oc1c(Cl)cc(Cl)c(Cl)c1Cc1c(O)c(Cl)cc(Cl)c1Cl | active: 2.13 µM
CC(C)C(c1nnnn1C(C)(C)C)N1CCN(c2cccc(Cl)c2)CC1 (stereo unspecified) | inconclusive [inhibitor, partial curve]
CC(C)(C)OC(=O)NCCCCCc1cn([C@@H](CO)C(=O)NCCCCCCCCCCC(=O)N2CCN(C(=O)OC(C)(C)C)CC2)nn1 | active: 16.9 µM
Cn1c(CNC(=O)C(Cc2ccccc2)NC(=O)c2ccccc2)cc(=O)n(C)c1=O (stereo unspecified) | inactive
CC(OC(=O)C1CCN(c2ccc(C(F)(F)F)cn2)CC1)C(=O)Nc1cccc([N+](=O)[O-])c1 (stereo unspecified) | inconclusive [inhibitor, partial curve]

Compound | Potency
O=C(c1ccccc1)c1ccc(Cn2cc(-c3ccccc3)nn2)cc1 | inconclusive [inhibitor, partial curve]
COc1ccc(N2CCN(C(=O)c3ccccc3N(C)S(=O)(=O)c3ccccc3)CC2)cc1 | inconclusive [inhibitor, partial curve]
Cn1cc(Cl)c(C(=O)N/N=C/c2ccc3c4c(cccc24)CC3)n1 | inactive
CCCCCCOc1ccc(NC(=O)CC2C(=O)N(CC)C(=S)N2Cc2ccco2)cc1 (stereo unspecified) | inconclusive [inhibitor, partial curve]
O=C(Nc1ccc(N2CCN(C(=O)c3ccccc3)CC2)cc1)c1cc2ccccc2o1 | active: 23.9 µM
CCc1nn(CC(=O)N2CCCCCC2)c(=O)c2cc3ccccc3n12 | inactive
COCCNC(=S)N1CCCN(c2nc3cc(C)ccc3cc2C#N)CC1 | inconclusive [inhibitor, partial curve, poor fit]
O=C(Nc1nc(-c2cccs2)cs1)c1ccc(S(=O)(=O)N2CCCCC2)cc1 | inconclusive [inhibitor, partial curve]
COc1ccc(S(=O)(=O)Nc2ccc(C)cc2)cc1N(C)S(=O)(=O)c1ccc(Cl)cc1 | inconclusive [inhibitor, partial curve]
Cc1cc(C=O)c(C)n1-c1ccc(NC2CCCC2)c([N+](=O)[O-])c1 | inconclusive [inhibitor, partial curve]
O=C(Nc1ccccc1)c1nnsc1S(=O)(=O)c1ccc(Cl)cc1 | inconclusive [inhibitor, partial curve]
O=C(NC(=S)Nc1ccccc1)c1cc(-c2ccccc2)nc2ccccc12 | inactive
Cc1c(C(=O)OC/C(O)=C(\C#N)c2nc3ccccc3[nH]2)oc2ccc(Br)cc12 | inactive
CCOc1cc(C(=S)N2CCOCC2)ccc1OC(=O)c1ccccc1 | inconclusive [inhibitor, partial curve, poor fit]
CCOc1cc(/C=C(\C#N)c2nc(-c3cccs3)c(NC(C)=O)s2)ccc1O | inconclusive [inhibitor, partial curve]
Cc1ccc(S(=O)(=O)/N=C2\C=C(Nc3cccc(C(=O)O)c3)C(=O)c3ccccc32)c(C)c1 | active: 30.1 µM
CSc1nsc(NC(=O)OCc2ccc(Cl)cc2)n1 | inconclusive [inhibitor, partial curve]
COc1ccc(C(c2nnnn2Cc2cccs2)N2CCN(c3ccccc3)CC2)cc1OC (stereo unspecified) | inconclusive [inhibitor, partial curve, poor fit]
O=C(NCCC1=CCCCC1)C1CCCN(S(=O)(=O)c2ccccc2)C1 (stereo unspecified) | inconclusive [inhibitor, partial curve, poor fit]
Cc1cc2c(NCc3ccccc3)ncnc2s1 | inconclusive [inhibitor, partial curve]
Cc1ccc(NC(=O)Nc2ccc3c(c2)N(C)C(=O)CS3)cc1C | active: 30.1 µM
CN(c1ccccc1)S(=O)(=O)c1ccc(NC(=O)c2nc(S(C)(=O)=O)ncc2Cl)cc1 | active: 21.3 µM

Compound | Potency
N#C/C(=N\Nc1cccc([N+](=O)[O-])c1)C(=O)c1ccc(Br)cc1 | active: 15.1 µM
Cc1ccccc1CS(=O)(=O)c1nnc([C@H](Cc2ccccc2)NC(=O)OC(C)(C)C)o1 | active: 37.9 µM
O=S(=O)(Nc1cccnc1)c1cc(Cl)ccc1Cl | inconclusive [inhibitor, partial curve]
O=C(COc1cccc(Cl)c1)Nc1nc(-c2ccc(S(=O)(=O)N3CCOCC3)cc2)cs1 | inconclusive [inhibitor, partial curve, poor fit]
O=C(N/N=C/c1ccc[nH]1)c1sc2ccccc2c1Cl | inactive
Cc1sc2nc(-c3ccccn3)[nH]c(=O)c2c1-c1ccccc1 | inconclusive [inhibitor, partial curve, poor fit]
CC(Sc1nnc(N)s1)c1ccccc1Cl (stereo unspecified) | inconclusive [inhibitor, partial curve]
Cn1c(=O)c(C(=O)NNC(=O)c2cccc(Cl)c2)c(O)c2ccccc21 | inconclusive [inhibitor, partial curve]
Cc1ccccc1CS(=O)(=O)c1ncc(Cl)c(C(=O)Nc2ccc(F)cc2)n1 | inconclusive [inhibitor, partial curve]
CC(=O)c1sc(NC(=O)c2cc(-c3ccccc3)nn2-c2ccccc2)nc1C | inconclusive [inhibitor, partial curve]
Cc1ccc(Nc2cc(C)nc3ccc(C)cc23)cc1 | inactive
COc1ccc(Cn2nnnc2C(C(C)C)N2CCN(c3ccccc3OC)CC2)cc1 (stereo unspecified) | inconclusive [inhibitor, partial curve, poor fit]
COc1ccccc1NS(=O)(=O)c1cccc(NC(=O)c2nn(C)c(=O)c3ccccc23)c1 | inconclusive [inhibitor, partial curve, poor fit]
CCC(=O)N(CC)c1nc(-c2cc(OC)ccc2OC)cs1 | inconclusive [inhibitor, partial curve]
Fc1ccc2nc(Nc3nc4c(F)cc(F)cc4s3)sc2c1 | inconclusive [inhibitor, partial curve]
O=C(N[C@H]1C/C=C\C(c2cccc(F)c2)N(Cc2ccccc2)C(=O)C1)OCC1c2ccccc2-c2ccccc21 (stereo partly specified) | inactive
O=C1C(Nc2ccc(O)cc2)=C/C(=N/S(=O)(=O)c2cccs2)c2ccccc21 | active: 30.1 µM
N#CC(C#N)=C1C=CC=CN1/C(=C\c1ccco1)C(=O)c1ccccc1 | inconclusive [inhibitor, partial curve]
C/C(=N\Nc1cc(C)nc(-c2ccccc2O)n1)c1ccccc1 | inconclusive [inhibitor, partial curve, poor fit]
N#CC(C#N)=C1C=CC=CN1/C(=C\c1ccco1)C(=O)c1ccc(Br)cc1 | inconclusive [inhibitor, partial curve]
COc1ccc(-c2nc(CS(=O)CC(=O)NCc3ccccc3)c(C)o2)cc1OC (stereo unspecified) | inactive
O=C(Nc1ccc(Cl)c(Cl)c1)c1cccc(S(=O)(=O)NCc2cccnc2)c1 | active: 13.5 µM
